Data on four molecules can be found in PubChem BioAssay (NCI).

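Where inhibition never reached the appropriate level, the endpoint shown equals the highest concentration tested. Otherwise, values were interpolated linearly from a five-concentration, 48-hour dose response in 96-well plates. Abbreviation: GI50, concentration required for 50% inhibition of growth. TGI denotes the concentration required for complete inhibition of growth.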

Usually GI50 stands for the concentration that inhibits growth by half. For orientation: TGI means the concentration at which net growth stops. Lower therefore signals more potent growth arrest.

The assay concerns NCI-H322M lung. The experiment in a line: DTP human tumour cell line panel, 48 h.
For the molecule `COc1cc2c3c(n(CCCN4CCC[C@@H]4CO)c(=O)c2cc1OC)-c1cc2c(cc1C3=O)OCO2`, the GI50 was 1.26 µM and the total growth inhibition concentration (TGI) worked out at 2.73 µM.
Take `COc1ccc(-c2nc(Nc3ccccc3S(N)(=O)=O)c3ccccc3n2)cc1`: the GI50 is 18.4 µM and the TGI is over 100 µM.
In the same order, the values of `COc1cccc(C(N)=Nc2ccc(OCCCCCCn3cncn3)cc2)c1` are 5.44 µM and over 100 µM.
The corresponding values for `Cc1ccc(S(=O)(=O)c2nc(S(=O)(=O)c3ccc(C)cc3)c(Cl)s2)cc1` are over 100 µM and over 100 µM.
